Reference: the supplement of paper PMC4604168 (melanoma cell lines)
The list shows a part of the results. Single values are uncertain, as repeats are few or missing.

What follows are compounds tested on A375 (assay: cell count relative to DMSO control; melanoma cells; higher = more viable cells). Conditions: library dose: low library concentration; 72 h.
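Note: cell number obtained by counting DAPI-stained nuclei in high-throughput microscope images with image analysis software, screen run in 1,536-well plates.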

`O=C(Nc1cc(C(F)(F)F)cc(C(F)(F)F)c1)c1cc(Cl)ccc1O` + Cc1nc(Nc2ncc(C(=O)Nc3c(C)cccc3Cl)s2)cc(N2CCN(CCO)CC2)n1 [dasatanib] (first compound 0.016 µM, partner dose 0.004 µM) was tested. Which cell count did it give?
The cell count was 81.7%.

With `O=C(O)c1ccc2c(c1)nc(Nc1cccc(Cl)c1)c1ccncc12` + CCCS(=O)(=O)Nc1ccc(F)c(C(=O)c2c[nH]c3ncc(Cl)cc23)c1F [PLX4720] (first compound 0.4 µM, partner dose 0.08 µM) as the compound, how does the cell count read?
The cell count was 80.9%.

`O=C(Nc1cc(C(F)(F)F)cc(C(F)(F)F)c1)c1cc(Cl)ccc1O` + Nc1nc(F)nc2c1ncn2[C@@H]1O[C@H](CO)[C@@H](O)[C@@H]1O [fludarabine] (first compound 0.016 µM, partner dose 0.2 µM) was tested. Which cell count did it give?
Its cell count is 28.7%.

With `O=C(O)c1ccc2c(c1)nc(Nc1cccc(Cl)c1)c1ccncc12` + O=C(Nc1cccc(Cl)c1)Nc1ncc(CCNc2ncnc3ccsc23)s1 [SNS314] (first compound 0.4 µM, partner dose 0.0008 µM) as the compound, how does the cell count read?
Its cell count is 103%.

How did the cell count turn out when `O=C(O)c1ccc2c(c1)nc(Nc1cccc(Cl)c1)c1ccncc12` + C=C(c1ccc(C(=O)O)cc1)c1cc2c(cc1C)C(C)(C)CCC2(C)C [Bexarotene] (first compound 0.4 µM, partner dose 2 µM) was run?
The cell count was 124%.

How did the cell count turn out when `O=C(O)[C@@H]1[O][Sb](=[O])([O][Sb]2(=[O])[O][C@H]([C@H](O)CO)[C@H](O)[C@H](C(=O)O)[O]2)[O][C@H]([C@H](O)CO)[C@@H]1O` (some centres undefined) [stibogluconate] + CS(=O)(=O)CCNCc1ccc(-c2ccc3ncnc(Nc4ccc(OCc5cccc(F)c5)c(Cl)c4)c3c2)o1 [lapatinib] (first compound 2 µM, partner dose 0.8 µM) was run?
Its cell count is 99.2%.

Which cell count does the source give for `O=C(O)c1ccc2c(c1)nc(Nc1cccc(Cl)c1)c1ccncc12` + NCC(=O)Nc1ccc(-n2nc(C(F)(F)F)cc2-c2ccc3c(ccc4ccccc43)c2)cc1 [OSU03012] (first compound 0.4 µM, partner dose 1 µM) here?
Its cell count is 16.6%.

With `O=C(Nc1cc(C(F)(F)F)cc(C(F)(F)F)c1)c1cc(Cl)ccc1O` + CNC(=O)c1cc(Oc2ccc(NC(=O)Nc3ccc(Cl)c(C(F)(F)F)c3)cc2)ccn1 [sorafenib] (first compound 0.016 µM, partner dose 0.4 µM) as the compound, how does the cell count read?
The cell count was 103%.

The compounds below were run on C32 in the same assay as above. Conditions: library dose: low library concentration; 72 h.

`Cc1cc(N2CCOCC2)cc2[nH]c(-c3c(NC[C@@H](O)c4cccc(Cl)c4)cc[nH]c3=O)nc12` + NCC(=O)Nc1ccc(-n2nc(C(F)(F)F)cc2-c2ccc3c(ccc4ccccc43)c2)cc1 [OSU03012] (first compound 0.2 µM, partner dose 1 µM) was tested. Which cell count did it give?
The cell count was 98.6%.

How did the cell count turn out when `O=C(O)c1ccc2c(c1)nc(Nc1cccc(Cl)c1)c1ccncc12` + CO[C@@H]1[C@H](N(C)C(=O)c2ccccc2)C[C@H]2O[C@]1(C)n1c3ccccc3c3c4c(c5c6ccccc6n2c5c31)C(=O)NC4 [Midostaurin] (first compound 0.4 µM, partner dose 0.08 µM) was run?
The cell count was 78.6%.

How did the cell count turn out when `O=C(Nc1cc(C(F)(F)F)cc(C(F)(F)F)c1)c1cc(Cl)ccc1O` + NCC(=O)Nc1ccc(-n2nc(C(F)(F)F)cc2-c2ccc3c(ccc4ccccc43)c2)cc1 [OSU03012] (first compound 0.016 µM, partner dose 1 µM) was run?
The cell count was 112%.

`O=C(Nc1cc(C(F)(F)F)cc(C(F)(F)F)c1)c1cc(Cl)ccc1O` + OCc1c[nH]c2ccccc12 [Indole-3-carbinol] (first compound 0.016 µM, partner dose 0.8 µM) was tested. Which cell count did it give?
Its cell count is 85.8%.

For `O=C(O)c1ccc2c(c1)nc(Nc1cccc(Cl)c1)c1ccncc12` + Cc1cc(N2CCOCC2)cc2[nH]c(-c3c(NC[C@@H](O)c4cccc(Cl)c4)cc[nH]c3=O)nc12 [BMS536924] (first compound 0.4 µM, partner dose 0.2 µM), which cell count is on record?
Its cell count is 88.6%.

`O=C(O)[C@@H]1[O][Sb](=[O])([O][Sb]2(=[O])[O][C@H]([C@H](O)CO)[C@H](O)[C@H](C(=O)O)[O]2)[O][C@H]([C@H](O)CO)[C@@H]1O` (some centres undefined) [stibogluconate] + CC(C)(C)c1cnc(CSc2cnc(NC(=O)C3CCNCC3)s2)o1 [SNS-032] (first compound 2 µM, partner dose 0.01 µM) was tested. Which cell count did it give?
The cell count was 105%.

With `O=C(Nc1cc(C(F)(F)F)cc(C(F)(F)F)c1)c1cc(Cl)ccc1O` + COc1cc(Nc2ncc(F)c(Nc3ccc4c(n3)NC(=O)C(C)(C)O4)n2)cc(OC)c1OC [Tamatinib] (first compound 0.016 µM, partner dose 0.4 µM) as the compound, how does the cell count read?
Its cell count is 74.5%.

`O=C(O)[C@@H]1[O][Sb](=[O])([O][Sb]2(=[O])[O][C@H]([C@H](O)CO)[C@H](O)[C@H](C(=O)O)[O]2)[O][C@H]([C@H](O)CO)[C@@H]1O` (some centres undefined) [stibogluconate] + Cc1nc(Nc2ncc(C(=O)Nc3c(C)cccc3Cl)s2)cc(N2CCN(CCO)CC2)n1 [dasatanib] (first compound 2 µM, partner dose 0.004 µM) was tested. Which cell count did it give?
The cell count was 91.1%.

`O=C(O)c1ccc2c(c1)nc(Nc1cccc(Cl)c1)c1ccncc12` + CN(NC(=O)CC(=O)NN(C)C(=S)c1ccccc1)C(=S)c1ccccc1 [STA4783] (first compound 0.4 µM, partner dose 0.006 µM) was tested. Which cell count did it give?
The cell count was 68.4%.

For `O=C(Nc1cc(C(F)(F)F)cc(C(F)(F)F)c1)c1cc(Cl)ccc1O` + O=c1[nH]nc(Sc2ncc([N+](=O)[O-])s2)n1-c1ccc2c(c1)OCCO2 [BI78D3] (first compound 0.016 µM, partner dose 0.2 µM), which cell count is on record?
Its cell count is 95.5%.

How did the cell count turn out when `O=C(Nc1cc(C(F)(F)F)cc(C(F)(F)F)c1)c1cc(Cl)ccc1O` + O=C(CCCCCCC(=O)Nc1ccccc1)NO [vorinostat] (first compound 0.016 µM, partner dose 0.08 µM) was run?
Its cell count is 104%.

How did the cell count turn out when `O=C(O)[C@@H]1[O][Sb](=[O])([O][Sb]2(=[O])[O][C@H]([C@H](O)CO)[C@H](O)[C@H](C(=O)O)[O]2)[O][C@H]([C@H](O)CO)[C@@H]1O` (some centres undefined) [stibogluconate] + Cc1ccc(NC(=O)c2cccc(N(C)C)c2)cc1NC(=O)c1ccc(O)cc1 [ZM336372] (first compound 2 µM, partner dose 2 µM) was run?
Its cell count is 104%.

For `O=C(O)[C@@H]1[O][Sb](=[O])([O][Sb]2(=[O])[O][C@H]([C@H](O)CO)[C@H](O)[C@H](C(=O)O)[O]2)[O][C@H]([C@H](O)CO)[C@@H]1O` (some centres undefined) [stibogluconate] + CN(C)S(=O)(=O)c1ccc2c(c1)/C(=C/c1cc3c([nH]1)CCCC3)C(=O)N2 [SU6656] (first compound 2 µM, partner dose 0.4 µM), which cell count is on record?
Its cell count is 104%.

With `O=C(Nc1cc(C(F)(F)F)cc(C(F)(F)F)c1)c1cc(Cl)ccc1O` + Cc1ccc(Nc2nccc(N(C)c3ccc4c(C)n(C)nc4c3)n2)cc1S(N)(=O)=O [Pazopanib] (first compound 0.016 µM, partner dose 0.4 µM) as the compound, how does the cell count read?
Its cell count is 106%.

For `O=C(Nc1cc(C(F)(F)F)cc(C(F)(F)F)c1)c1cc(Cl)ccc1O` + O=C(O)c1ccc(-c2c[nH]c3ncc(-c4ccccc4)cc23)cc1C1CCCC1 [GSK650394] (first compound 0.016 µM, partner dose 0.16 µM), which cell count is on record?
The cell count was 88.2%.

Which cell count does the source give for `O=C(O)c1ccc2c(c1)nc(Nc1cccc(Cl)c1)c1ccncc12` + C[C@@H]1CCN(C(=O)CC#N)C[C@@H]1N(C)c1ncnc2[nH]ccc12 [CP690550] (first compound 0.4 µM, partner dose 1 µM) here?
Its cell count is 126%.

How did the cell count turn out when `O=C(Nc1cc(C(F)(F)F)cc(C(F)(F)F)c1)c1cc(Cl)ccc1O` + C[C@@H]1CCN(C(=O)CC#N)C[C@@H]1N(C)c1ncnc2[nH]ccc12 [CP690550] (first compound 0.016 µM, partner dose 1 µM) was run?
Its cell count is 81.9%.

For `O=C(O)[C@@H]1[O][Sb](=[O])([O][Sb]2(=[O])[O][C@H]([C@H](O)CO)[C@H](O)[C@H](C(=O)O)[O]2)[O][C@H]([C@H](O)CO)[C@@H]1O` (some centres undefined) [stibogluconate] + CO[C@@H]1[C@H](N(C)C(=O)c2ccccc2)C[C@H]2O[C@]1(C)n1c3ccccc3c3c4c(c5c6ccccc6n2c5c31)C(=O)NC4 [Midostaurin] (first compound 2 µM, partner dose 0.08 µM), which cell count is on record?
The cell count was 91.1%.

For `O=C(O)[C@@H]1[O][Sb](=[O])([O][Sb]2(=[O])[O][C@H]([C@H](O)CO)[C@H](O)[C@H](C(=O)O)[O]2)[O][C@H]([C@H](O)CO)[C@@H]1O` (some centres undefined) [stibogluconate] + CC(=O)c1c(C)c2cnc(Nc3ccc(N4CCNCC4)cn3)nc2n(C2CCCC2)c1=O [palbociclib] (first compound 2 µM, partner dose 0.04 µM), which cell count is on record?
Its cell count is 71.7%.

`O=C(O)[C@@H]1[O][Sb](=[O])([O][Sb]2(=[O])[O][C@H]([C@H](O)CO)[C@H](O)[C@H](C(=O)O)[O]2)[O][C@H]([C@H](O)CO)[C@@H]1O` (some centres undefined) [stibogluconate] + COc1cc(Nc2ncc(F)c(Nc3ccc4c(n3)NC(=O)C(C)(C)O4)n2)cc(OC)c1OC [Tamatinib] (first compound 2 µM, partner dose 0.4 µM) was tested. Which cell count did it give?
Its cell count is 87.8%.

For `O=C(Nc1cc(C(F)(F)F)cc(C(F)(F)F)c1)c1cc(Cl)ccc1O` + CC1(C)CCC(c2ccc(Cl)cc2)=C(CN2CCN(c3ccc(C(=O)NS(=O)(=O)c4ccc(N[C@H](CCN5CCOCC5)CSc5ccccc5)c(S(=O)(=O)C(F)(F)F)c4)cc3)CC2)C1 [ABT263] (first compound 0.016 µM, partner dose 0.4 µM), which cell count is on record?
The cell count was 73.1%.
